# Positions count from the first letter of the chain named. The list shows a part of the results.
# B1: GAGUCUC (DNA:RNA)
# RNA: GGGAGACCGGAAUUCAGAUUGUCCGAGUCUCUUAAAUCCCGUCGUAGCCACCA
# DNA 1: CAATCTGAATTCCGGTCTCCC
# DNA 2: TGGTGGCTACGACGGGATT
# B2: GAAUGAG (DNA:RNA)
# RNA: B1 RNA with G27A, C29G, U30A, C31G
# DNA 1: CAATCTGAATTCCGGTCTCCC
# DNA 2: TGGTGGCTACGACGGGATT
# B3: GUGUGGG (DNA:RNA)
# RNA: B1 RNA with A26U, C29G, U30G, C31G
# DNA 1: CAATCTGAATTCCGGTCTCCC
# DNA 2: TGGTGGCTACGACGGGATT
# B4: AACCGUG (DNA:RNA)
# RNA: B1 RNA with G25A, G27C, U28C, C29G, C31G
# DNA 1: CAATCTGAATTCCGGTCTCCC
# DNA 2: TGGTGGCTACGACGGGATT
# B5: GGGGUCC (DNA:RNA)
# RNA: B1 RNA with A26G, U28G, C29U, U30C
# DNA 1: CAATCTGAATTCCGGTCTCCC
# DNA 2: TGGTGGCTACGACGGGATT
# B6: CACUGAA (DNA:RNA)
# RNA: B1 RNA with G25C, G27C, C29G, U30A, C31A
# DNA 1: CAATCTGAATTCCGGTCTCCC
# DNA 2: TGGTGGCTACGACGGGATT
# B7: GAAGAAC (DNA:RNA)
# RNA: B1 RNA with G27A, U28G, C29A, U30A
# DNA 1: CAATCTGAATTCCGGTCTCCC
# DNA 2: TGGTGGCTACGACGGGATT
# B8: CAAUCCU (DNA:RNA)
# RNA: B1 RNA with G25C, G27A, U30C, C31U
# DNA 1: CAATCTGAATTCCGGTCTCCC
# DNA 2: TGGTGGCTACGACGGGATT
# B9: CAUGAUA (DNA:RNA)
# RNA: B1 RNA with G25C, G27U, U28G, C29A, C31A
# DNA 1: CAATCTGAATTCCGGTCTCCC
# DNA 2: TGGTGGCTACGACGGGATT
# B10: GCGGACU (DNA:RNA)
# RNA: B1 RNA with A26C, U28G, C29A, U30C, C31U
# DNA 1: CAATCTGAATTCCGGTCTCCC
# DNA 2: TGGTGGCTACGACGGGATT
# B11: UUCUCCU (DNA:RNA)
# RNA: B1 RNA with G25U, A26U, G27C, U30C, C31U
# DNA 1: CAATCTGAATTCCGGTCTCCC
# DNA 2: TGGTGGCTACGACGGGATT
# B12: UACGCCG (DNA:RNA)
# RNA: B1 RNA with G25U, G27C, U28G, U30C, C31G
# DNA 1: CAATCTGAATTCCGGTCTCCC
# DNA 2: TGGTGGCTACGACGGGATT
# B13: CACCUGA (DNA:RNA)
# RNA: B1 RNA with G25C, G27C, U28C, C29U, U30G, C31A
# DNA 1: CAATCTGAATTCCGGTCTCCC
# DNA 2: TGGTGGCTACGACGGGATT
# B14: UUUUCUC (DNA:RNA)
# RNA: B1 RNA with G25U, A26U, G27U
# DNA 1: CAATCTGAATTCCGGTCTCCC
# DNA 2: TGGTGGCTACGACGGGATT
# B15: CACGCAG (DNA:RNA)
# RNA: B1 RNA with G25C, G27C, U28G, U30A, C31G
# DNA 1: CAATCTGAATTCCGGTCTCCC
# DNA 2: TGGTGGCTACGACGGGATT
# B16: GCUGGGG (DNA:RNA)
# RNA: B1 RNA with A26C, G27U, U28G, C29G, U30G, C31G
# DNA 1: CAATCTGAATTCCGGTCTCCC
# DNA 2: TGGTGGCTACGACGGGATT
# B17: AUGAUCU (DNA:RNA)
# RNA: B1 RNA with G25A, A26U, U28A, C29U, U30C, C31U
# DNA 1: CAATCTGAATTCCGGTCTCCC
# DNA 2: TGGTGGCTACGACGGGATT
# B18: AAGCUAA (DNA:RNA)
# RNA: B1 RNA with G25A, U28C, C29U, U30A, C31A
# DNA 1: CAATCTGAATTCCGGTCTCCC
# DNA 2: TGGTGGCTACGACGGGATT
# B19: UGUUGUA (DNA:RNA)
# RNA: B1 RNA with G25U, A26G, G27U, C29G, C31A
# DNA 1: CAATCTGAATTCCGGTCTCCC
# DNA 2: TGGTGGCTACGACGGGATT
# B20: GAACUAU (DNA:RNA)
# RNA: B1 RNA with G27A, U28C, C29U, U30A, C31U
# DNA 1: CAATCTGAATTCCGGTCTCCC
# DNA 2: TGGTGGCTACGACGGGATT
# B21: UACCUGU (DNA:RNA)
# RNA: B1 RNA with G25U, G27C, U28C, C29U, U30G, C31U
# DNA 1: CAATCTGAATTCCGGTCTCCC
# DNA 2: TGGTGGCTACGACGGGATT
# B22: UUAAGUC (DNA:RNA)
# RNA: B1 RNA with G25U, A26U, G27A, U28A, C29G
# DNA 1: CAATCTGAATTCCGGTCTCCC
# DNA 2: TGGTGGCTACGACGGGATT
# B23: UAUCCUG (DNA:RNA)
# RNA: B1 RNA with G25U, G27U, U28C, C31G
# DNA 1: CAATCTGAATTCCGGTCTCCC
# DNA 2: TGGTGGCTACGACGGGATT
# B24: GGAGCUC (DNA:RNA)
# RNA: B1 RNA with A26G, G27A, U28G
# DNA 1: CAATCTGAATTCCGGTCTCCC
# DNA 2: TGGTGGCTACGACGGGATT
# B25: GGCGCGC (DNA:RNA)
# RNA: B1 RNA with A26G, G27C, U28G, U30G
# DNA 1: CAATCTGAATTCCGGTCTCCC
# DNA 2: TGGTGGCTACGACGGGATT
# B26: GUUUGUU (DNA:RNA)
# RNA: B1 RNA with A26U, G27U, C29G, C31U
# DNA 1: CAATCTGAATTCCGGTCTCCC
# DNA 2: TGGTGGCTACGACGGGATT
# B27: GCCACUU (DNA:RNA)
# RNA: B1 RNA with A26C, G27C, U28A, C31U
# DNA 1: CAATCTGAATTCCGGTCTCCC
# DNA 2: TGGTGGCTACGACGGGATT
# B28: UGUUACC (DNA:RNA)
# RNA: B1 RNA with G25U, A26G, G27U, C29A, U30C
# DNA 1: CAATCTGAATTCCGGTCTCCC
# DNA 2: TGGTGGCTACGACGGGATT
# B29: ACGUCGG (DNA:RNA)
# RNA: B1 RNA with G25A, A26C, U30G, C31G
# DNA 1: CAATCTGAATTCCGGTCTCCC
# DNA 2: TGGTGGCTACGACGGGATT
# B30: CGGCCCC (DNA:RNA)
# RNA: B1 RNA with G25C, A26G, U28C, U30C
# DNA 1: CAATCTGAATTCCGGTCTCCC
# DNA 2: TGGTGGCTACGACGGGATT
# B31: UUGGCAG (DNA:RNA)
# RNA: B1 RNA with G25U, A26U, U28G, U30A, C31G
# DNA 1: CAATCTGAATTCCGGTCTCCC
# DNA 2: TGGTGGCTACGACGGGATT
# Target: T1, RBFOX1 RRM (Homo sapiens, UniProt Q9NWB1 109-208)
# T1 sequence: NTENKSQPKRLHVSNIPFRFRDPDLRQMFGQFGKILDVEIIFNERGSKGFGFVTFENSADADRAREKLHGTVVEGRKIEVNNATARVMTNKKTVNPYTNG
# Experiment: EMSA; HiTS-Eq, 1 nM pool, 10 min; buffer printed only for the single-RNA assays: 10 mM Tris pH 7.5, 150 mM NaCl, 3.4 mM EDTA, 0.001% NP-40, 30 C
# Settings: tags: His6 N-terminal (pET28a); label: 5' 32P
# Outline: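 Purified RbFox RRM, wild type or mutant, was incubated for 10 min in 50 µL with 1 nM of a 5′-radiolabelled RNA pool carrying 7 randomized nucleotides, whose flanks were annealed to DNA oligonucleotides, over a series of increasing protein concentrations. Unbound RNA was resolved on 8% native PAGE, cut out, reverse-transcribed, barcoded by PCR and sequenced on an Illumina HiSeq 2500. Relative association constants were derived from changes in read counts for each RNA species versus the control reaction and normalised to the cognate motif.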
row,Binder,binding signal
1,B1,0.032 KA relative to UGCAUGU
2,B2,0.0255 KA relative to UGCAUGU
3,B3,0.0132 KA relative to UGCAUGU
4,B4,0.00314 KA relative to UGCAUGU
5,B5,0.0259 KA relative to UGCAUGU
6,B6,0.00363 KA relative to UGCAUGU
7,B7,0.00453 KA relative to UGCAUGU
8,B8,0.00198 KA relative to UGCAUGU
9,B9,0.00374 KA relative to UGCAUGU
10,B10,0.00605 KA relative to UGCAUGU
11,B11,0.00904 KA relative to UGCAUGU
12,B12,0.0103 KA relative to UGCAUGU
13,B13,0.00312 KA relative to UGCAUGU
14,B14,0.0162 KA relative to UGCAUGU
15,B15,0.00633 KA relative to UGCAUGU
16,B16,0.019 KA relative to UGCAUGU

row,Binder,binding signal
1,B17,0.00688 KA relative to UGCAUGU
2,B18,0.00208 KA relative to UGCAUGU
3,B19,0.0214 KA relative to UGCAUGU
4,B20,0.00748 KA relative to UGCAUGU
5,B21,0.0129 KA relative to UGCAUGU
6,B22,0.0107 KA relative to UGCAUGU
7,B23,0.00862 KA relative to UGCAUGU
8,B24,0.0188 KA relative to UGCAUGU
9,B25,0.019 KA relative to UGCAUGU
10,B26,0.0276 KA relative to UGCAUGU
11,B27,0.00498 KA relative to UGCAUGU
12,B28,0.00783 KA relative to UGCAUGU
13,B29,0.0158 KA relative to UGCAUGU
14,B30,0.00959 KA relative to UGCAUGU
15,B31,0.0222 KA relative to UGCAUGU

# From paper PMC9911399, “Two distinct binding modes provide the RNA-binding protein RbFox with extraordinary sequence specificity”
